Laboratory results from the supplement of paper PMC5655136.
Read counts after selection give these values, which scatter widely.

The sequences below were run on NB7 (assay: fold depletion of shRNA, plasmid library share / infected cells without Dox share (9 days) (ratio); higher = more depleted after infection (more toxic, leaky expression from a Tet-inducible vector; NB7 is a neuroblastoma line without caspase-8)). Conditions: shRNA pool: CD95L ORF + CD95L 3'UTR + Venus libraries.
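Also: shRNA barcodes quantified by deep sequencing of PCR amplicons from cellular DNA, counts expressed as percent of each subpool, ratio averaged over two biological duplicates.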

Sequence | fold depletion of shRNA
AACATCGAGGACGGCGGCGTG | 2.24
ATTAGGAAAATATGGGTTGCA | 14.8
CTAACACAGCATGTGTATTTC | 0.618
ACGGCCACAAGTTCAGCGTGT | 0.912
AGGAATCTCAGACGTTTTTCG | 0.462
TGAAAAAGCAGCTACCAGGTG | 11.6
CCACCTACGGCAAGCTGACCC | 0.578
AACGGCCACAAGTTCAGCGTG | 1.28
CACCACCACCACCGCCACCGC | 0.793
GGATTTAAGGGATGGAAAAGG | 0.93
CATCCTGGGGCACAAGCTGGA | 0.991
GCGAGGGCGAGGGCGATGCCA | 0.472
GGCTGCCATGTGAAGAGGGAG | 1.22
TCTTTCCATTATGATTCTTTG | 0.841
GGCCTTGTGATCAATGAAACT | 2.19
CCCTGTCCAACCTCTGTGCCC | 1.39
GACCGCCGCCGGGATCACTCT | 0.786
GGAATATGACGGAAGAACATA | 1.23
GCAAGGGCGAGGAGCTGTTCA | 0.708
AAATATTTATGTAGATGTGCA | 0.961
TGGAGTTCGTGACCGCCGCCG | 1.24

Sequence | fold depletion of shRNA
TGAAGCAGCACGACTTCTTCA | 0.127
GAGTATTTAGGCAGATTGAAA | 1.35
GCTGGAGTACAACTACAACAG | 3.09
TGCCCCTGAGCCACAAGGTCT | 0.971
GCCAGCTCTCCCTGGGCCCCT | 21.1
CTAATGATGTTTTCCTATAAT | 0.574
TTGTGATCAATGAAACTGGGC | 1.65
AGAGATGTTTTGGGGACTCAT | 4.78
ATGTAGATGTGCATTTTTGTG | 0.904
ACTTTGGGATTCTTTCCATTA | 3.53
CCAGCAGAACACCCCCATCGG | 1.74
CCGCCATGCCCGAAGGCTACG | 1.59
GTGCCTGAGAGTATTTAGGCA | 2.04
ACAGTTCTTCCCTGTCCAACC | 4.27
GCAGCATCTTCACTTCTAAAT | 3.36
CGACGTAAACGGCCACAAGTT | 2.27
CAGACGTTTTTCGGCTTATAT | 0.822
TGTTTATGAGCCAGACAAATG | 0.922
CACCATCTTCTTCAAGGACGA | 3.56
AATGTTGTATTCAGTGAGGGT | 4.83
ATTTGGTCAAGATTTTGAATG | 0.479

Sequence | fold depletion of shRNA
CACGACTTCTTCAAGTCCGCC | 0.811
GTAAGAAGACATGAACCAAGT | 3.11
AGACCCGCGCCGAGGTGAAGT | 0.701
TTCCTGACAATCAACTCTAAT | 0.677
CCAGTGCTGATCATTTATATG | 1.02
ATAATATAATAAATATTTATG | 1
CCGACCACATGAAGCAGCACG | 1.83
TTGTTACAGGCACCGAGAATG | 1.96
CTGGTTGCCTTGGTAGGATTG | 2.37
TTATATGTCAACGTATCTGAG | 2.5
AGCTACTGCACTACTGGGCAG | 0.578
CCACTACCTGAGCTACCAGTC | 2.32
GGAAAAGGAAGACTAGAGGCT | 0.59
CAACGAGAAGCGCGATCACAT | 0.644
GGCGGCGTGCAGCTCGCCGAC | 1.11
GCATGAAAAAGCAGCTACCAG | 1.18
GGGTGGTGCCCATCCTGGTCG | 0.704
GCAGAACACCCCCATCGGCGA | 1.29
GGTCCATGCCTCTGGAATGGG | 15.8

Same assay, conditions: shRNA pool: CD95 ORF + CD95 3'UTR + Venus libraries

Sequence | fold depletion of shRNA
CATCAACTTCATGGAAAGAAA | 0.517
GGCTCTACCTCAAAGACCTTT | 0.524
AACATCGAGGACGGCGGCGTG | 0.9
GCAATCAAAGATGATAAAATA | 0.931
ACTGGCTCAAAACTACCTACT | 25.9
ACGGCCACAAGTTCAGCGTGT | 0.661
ACACTCACCAGCAACACCAAG | 1.13
AAGCTAGGGACTGCACAGTCA | 1.82
CCACCTACGGCAAGCTGACCC | 1.13
